Measurements published in PMC6794377.
No constants are given. Whether binding was seen depends on the method and setting. In cells and extracts the contact can be indirect. Some binding calls cover weakened binding; strength is not graded here. Where a sequence is shown, tags or fusion partners need not be part of it.

Legend:
Experiment in all cases: co-IP; FLAG-tagged hThrRS-L or mutant overexpressed in HEK293T; IP with anti-FLAG, Dynabeads protein G, 4°C; endogenous partners detected by western blotting
[1] = molecular target: T1, hThrRS-L-Hb/A-FLAG (human) (UniProt A2RTX5)
T1 sequence: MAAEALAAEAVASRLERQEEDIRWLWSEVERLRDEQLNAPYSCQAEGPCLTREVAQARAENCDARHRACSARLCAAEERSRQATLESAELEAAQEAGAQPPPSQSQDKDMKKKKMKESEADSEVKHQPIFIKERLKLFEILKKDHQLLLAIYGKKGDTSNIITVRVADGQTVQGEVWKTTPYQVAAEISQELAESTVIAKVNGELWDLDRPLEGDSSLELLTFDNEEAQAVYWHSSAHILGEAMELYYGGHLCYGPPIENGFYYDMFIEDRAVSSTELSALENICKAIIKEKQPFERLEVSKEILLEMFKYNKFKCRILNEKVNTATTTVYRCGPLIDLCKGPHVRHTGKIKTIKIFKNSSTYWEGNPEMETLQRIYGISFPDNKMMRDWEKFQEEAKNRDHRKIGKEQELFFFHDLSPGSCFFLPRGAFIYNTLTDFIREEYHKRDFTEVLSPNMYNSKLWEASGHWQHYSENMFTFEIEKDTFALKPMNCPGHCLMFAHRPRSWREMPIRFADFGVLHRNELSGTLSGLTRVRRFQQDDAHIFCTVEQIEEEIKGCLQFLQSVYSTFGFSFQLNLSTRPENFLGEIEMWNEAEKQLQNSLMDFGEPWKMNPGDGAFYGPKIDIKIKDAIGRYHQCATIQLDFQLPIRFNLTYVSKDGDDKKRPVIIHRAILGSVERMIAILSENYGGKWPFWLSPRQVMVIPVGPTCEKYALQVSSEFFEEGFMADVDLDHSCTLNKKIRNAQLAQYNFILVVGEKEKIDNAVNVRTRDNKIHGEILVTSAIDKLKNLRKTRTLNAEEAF

[2] = molecular target: T2, hThrRS-L-S453D with a C-terminal FLAG tag (human) (UniProt A2RTX5)
T2 sequence: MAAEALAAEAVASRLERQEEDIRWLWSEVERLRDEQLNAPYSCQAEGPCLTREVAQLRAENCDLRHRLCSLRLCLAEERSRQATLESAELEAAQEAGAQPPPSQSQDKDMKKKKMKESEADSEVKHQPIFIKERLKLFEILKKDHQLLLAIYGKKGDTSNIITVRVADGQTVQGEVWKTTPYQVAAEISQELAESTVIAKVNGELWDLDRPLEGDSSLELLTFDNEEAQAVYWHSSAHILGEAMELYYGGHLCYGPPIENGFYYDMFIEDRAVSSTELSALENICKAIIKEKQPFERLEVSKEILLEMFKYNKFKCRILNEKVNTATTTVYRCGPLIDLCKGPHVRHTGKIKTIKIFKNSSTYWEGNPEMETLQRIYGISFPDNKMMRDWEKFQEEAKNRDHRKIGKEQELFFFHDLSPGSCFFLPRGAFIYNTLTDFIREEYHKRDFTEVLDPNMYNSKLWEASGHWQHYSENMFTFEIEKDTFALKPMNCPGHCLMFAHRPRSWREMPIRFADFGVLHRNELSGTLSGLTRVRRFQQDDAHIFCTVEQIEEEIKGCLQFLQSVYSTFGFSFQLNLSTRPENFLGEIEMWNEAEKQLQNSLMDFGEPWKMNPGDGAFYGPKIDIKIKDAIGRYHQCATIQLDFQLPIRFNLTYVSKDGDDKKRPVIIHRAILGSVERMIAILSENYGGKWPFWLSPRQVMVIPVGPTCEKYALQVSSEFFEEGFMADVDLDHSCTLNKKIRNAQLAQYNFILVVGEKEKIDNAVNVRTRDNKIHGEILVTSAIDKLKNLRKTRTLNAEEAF

[3] = molecular target: T3, hThrRS-L-T163D with a C-terminal FLAG tag (human) (UniProt A2RTX5)
T3 sequence: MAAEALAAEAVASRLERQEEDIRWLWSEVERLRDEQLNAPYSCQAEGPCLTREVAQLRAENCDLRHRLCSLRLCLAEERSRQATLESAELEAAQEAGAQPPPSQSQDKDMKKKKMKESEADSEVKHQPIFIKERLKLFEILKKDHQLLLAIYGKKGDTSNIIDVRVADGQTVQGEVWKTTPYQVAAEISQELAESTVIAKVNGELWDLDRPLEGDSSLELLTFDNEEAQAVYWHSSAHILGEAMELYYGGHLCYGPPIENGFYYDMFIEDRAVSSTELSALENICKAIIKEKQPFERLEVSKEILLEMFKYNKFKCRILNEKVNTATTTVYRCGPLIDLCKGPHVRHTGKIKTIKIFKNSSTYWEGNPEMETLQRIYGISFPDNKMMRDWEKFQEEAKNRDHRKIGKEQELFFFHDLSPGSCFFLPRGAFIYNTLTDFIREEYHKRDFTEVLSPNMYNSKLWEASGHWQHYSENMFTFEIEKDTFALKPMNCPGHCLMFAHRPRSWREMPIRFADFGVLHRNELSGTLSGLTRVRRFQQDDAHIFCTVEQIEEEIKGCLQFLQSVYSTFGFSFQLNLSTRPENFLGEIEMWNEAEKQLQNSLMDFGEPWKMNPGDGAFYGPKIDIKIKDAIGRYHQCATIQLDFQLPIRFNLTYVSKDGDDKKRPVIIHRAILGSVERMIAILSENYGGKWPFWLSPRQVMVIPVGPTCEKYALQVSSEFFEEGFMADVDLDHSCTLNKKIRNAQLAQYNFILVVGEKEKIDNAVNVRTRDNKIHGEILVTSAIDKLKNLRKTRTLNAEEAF

B1: native p43 (AIMP1), endogenous in human cells (protein, UniProt Q12904-2 1-336)
chain: MLPAVAVSEPVVLRFMIFCRLLAKMANNDAVLKRLEQKGAEADQIIEYLKQQVSLLKEKAILQATLREEKKLRVENAKLKKEIEELKQELIQAEIQNGVKQIPFPSGTPLHANSMVSENVIQSTAVTTVSSGTKEQIKGGTGDEKKAKEKIEKKGEKKEKKQQSIAGSADSKPIDVSRLDLRIGCIITARKHPDADSLYVEEVDVGEIAPRTVVSGLVNHVPLEQMQNRMVILLCNLKPAKMRGVLSQAMVMCASSPEKIEILAPPNGSVPGDRITFDAFPGEPDKELNPKKKIWEQIQPDLHTNDECVATYKGVPFEVKGKGVCRAQTMSNSGIK
[1]
  binding: no binding
[2]
  binding: binds
[3]
  binding: binds

B2: ArgRS, endogenous in human cells (enzyme, UniProt P54136 1-660)
chain: MDVLVSECSARLLQQEEEIKSLTAEIDRLKNCGCLGASPNLEQLQEENLKLKYRLNILRKSLQAERNKPTKNMINIISRLQEVFGHAIKAAYPDLENPPLLVTPSQQAKFGDYQCNSAMGISQMLKTKEQKVNPREIAENITKHLPDNECIEKVEIAGPGFINVHLRKDFVSEQLTSLLVNGVQLPALGENKKVIVDFSSPNIAKEMHVGHLRSTIIGESISRLFEFAGYDVLRLNHVGDWGTQFGMLIAHLQDKFPDYLTVSPPIGDLQVFYKESKKRFDTEEEFKKRAYQCVVLLQGKNPDITKAWKLICDVSRQELNKIYDALDVSLIERGESFYQDRMNDIVKEFEDRGFVQVDDGRKIVFVPGCSIPLTIVKSDGGYTYDTSDLAAIKQRLFEEKADMIIYVVDNGQSVHFQTIFAAAQMIGWYDPKVTRVFHAGFGVVLGEDKKKFKTRSGETVRLMDLLGEGLKRSMDKLKEKERDKVLTAEELNAAQTSVAYGCIKYADLSHNRLNDYIFSFDKMLDDRGNTAAYLLYAFTRIRSIARLANIDEEMLQKAARETKILLDHEKEWKLGRCILRFPEILQKILDDLFLHTLCDYIYELATAFTEFYDSCYCVEKDRQTGKILKVNMWRMLLCEAVAAVMAKGFDILGIKPVQRM
[1]
  binding: no binding
[2]
  binding: binds
[3]
  binding: binds

B3: native hThrRS, endogenous in HEK293T (enzyme, UniProt P26639 1-723)
chain: MFEEKASSPSGKMGGEEKPIGAGEEKQKEGGKKKNKEGSGDGGRAELNPWPEYIYTRLEMYNILKAEHDSILAEKAEKDSKPIKVTLPDGKQVDAESWKTTPYQIACGISQGLADNTVIAKVNNVVWDLDRPLEEDCTLELLKFEDEEAQAVYWHSSAHIMGEAMERVYGGCLCYGPPIENGFYYDMYLEEGGVSSNDFSSLEALCKKIIKEKQAFERLEVKKETLLAMFKYNKFKCRILNEKVNTPTTTVYRCGPLIDLCRGPHVRHTGKIKALKIHKNSSTYWEGKADMETLQRIYGISFPDPKMLKEWEKFQEEAKNRDHRKIGRDQELYFFHELSPGSCFFLPKGAYIYNALIEFIRSEYRKRGFQEVVTPNIFNSRLWMTSGHWQHYSENMFSFEVEKELFALKPMNCPGHCLMFDHRPRSWRELPLRLADFGVLHRNELSGALTGLTRVRRFQQDDAHIFCAMEQIEDEIKGCLDFLRTVYSVFGFSFKLNLSTRPEKFLGDIEVWDQAEKQLENSLNEFGEKWELNSGDGAFYGPKIDIQIKDAIGRYHQCATIQLDFQLPIRFNLTYVSHDGDDKKRPVIVHRAILGSVERMIAILTENYGGKWPFWLSPRQVMVVPVGPTCDEYAQKVRQQFHDAKFMADIDLDPGCTLNKKIRNAQLAQYNFILVVGEKEKISGTVNIRTRDNKVHGERTISETIERLQQLKEFRSKQAEEEF
[1]
  binding: binds
[2]
  binding: binds
[3]
  binding: binds
